Measured values from patent EP4674868A1 (Jiangsu Hengrui Pharmaceuticals Co., Ltd., dated 2026).

Legend:
[1] = target: T1, human CD40 on the surface of HEK293 cells (HEK293-HuCD40) (human, UniProt P25942 21-277); test: cell-based or functional assay
[2] = target: T2, human FAP on the surface of CHO-K1 cells (CHO-K1-HuFAP) (human, UniProt Q12884 1-760); test: FACS, CHO-K1-HuFAP cells
T2 construct: whole, on cells; also called CHO cell line overexpressing human FAP; FAP on the surface of CHO-K1-HuFAP cells

[3] = target: T3, human 4-1BB on the surface of HEK293 cells (HEK293-Hu4-1BB) (human, UniProt Q07011 24-255); test: cell-based or functional assay
[4] = target: T2, human FAP on the surface of CHO-K1 …; test: FACS, CHO-K1-HuFAP cells; remark: listed apart in the source
[5] = target: T3, human 4-1BB on the surface of HEK293 …; test: FACS, HEK293-Hu4-1BB cells
[6] = target: T1, human CD40 on the surface of HEK293 …; test: cell-based or functional assay; remark: listed apart in the source
[7] = target: T3, human 4-1BB on the surface of HEK293 …; test: cell-based or functional assay; remark: listed apart in the source
[8] = target: T1, human CD40 on the surface of HEK293 …; test: FACS, HEK293-HuCD40 cells
[9] = target: T3, human 4-1BB on the surface of HEK293 …; test: FACS, HEK293-Hu4-1BB cells; remark: listed apart in the source
[10] = target: T1, human CD40 on the surface of HEK293 …; test: FACS, HEK293-HuCD40 cells; remark: listed apart in the source
[11] = target: T3, human 4-1BB on the surface of HEK293 …; test: FACS, HEK293-Hu4-1BB cells; remark: listed apart in the source

T1 sequence (P25942 21-277): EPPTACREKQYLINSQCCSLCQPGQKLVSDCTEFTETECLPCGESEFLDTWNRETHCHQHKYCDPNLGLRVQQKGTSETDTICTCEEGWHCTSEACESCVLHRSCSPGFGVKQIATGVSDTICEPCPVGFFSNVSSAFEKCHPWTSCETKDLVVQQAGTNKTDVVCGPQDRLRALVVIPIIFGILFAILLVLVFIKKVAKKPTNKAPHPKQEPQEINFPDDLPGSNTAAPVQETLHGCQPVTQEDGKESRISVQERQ
T3 sequence (Q07011 24-255): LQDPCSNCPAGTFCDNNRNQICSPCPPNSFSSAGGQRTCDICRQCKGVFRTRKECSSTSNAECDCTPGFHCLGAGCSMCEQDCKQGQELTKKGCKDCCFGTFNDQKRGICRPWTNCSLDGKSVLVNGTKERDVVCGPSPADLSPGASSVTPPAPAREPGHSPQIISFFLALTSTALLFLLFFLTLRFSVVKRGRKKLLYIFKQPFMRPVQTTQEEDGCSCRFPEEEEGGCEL

B1: B21326102 (anti-FAP/4-1BB/CD40 trispecific antibody) (other)
heavy: QVQLQQSGVEVKKPGASVTVSCRASGYSFADHFIHWVRQAPGQGFQWMGWINPNRGVTHHAQDFQGRVAMTRDMSTDTVYMELTSLRSDDTAVYYCARDASLTARPYYFYGFDVWGQGTLVTVSS[human IgG1 constant region with changes not given here]GGGGSGGGGSQVQLVESGGGLVQPGGSLRLSCSASGFTFSSYAMSWVRQAPGKGLEWVSDINSGGESTFYEDSVKGRFTISRDNAKNTLYLQMNSLRAEDTAVYYCAKHPLTYTIATMNDYDYWGQGTLVTVSAA
light: DIQMTQSPSSVSASVGDRVTITCRASQGISSWLAWYQQKPGKAPKLLIYAASSLQSGVPSRFSGSGSGTDFTLTISSLQPEDFATYYCQQANSFPPAFGQGTKVEIKRTVAAPSVFIFPPSDEQLKSGTASVVCLLNNFYPREAKVQWKVDNALQSGNSQESVTEQDSKDSTYSLSSTLTLSKADYEKHKVYACEVTHQGLSSPVTKSFNRGECGGGGSGGGGSEVQLVESGGGLVQPGGSLRLSCAASGFTFSRYGMKWVRQAPGKGLEWVSTINSHGDTTYYADSVKGRFTISRDNAKNSLYLQMNSLRAEDTAVYYCLRIDYSDYSSRGQGTLVTVSAA
- CD40/NF-κB reporter (HEK-Blue CD40L), 4-1BB-crosslinked, EC50 [1]: 0.5 nM
- CD40/NF-κB reporter (HEK-Blue CD40L), 4-1BB-crosslinked, Fold change in Emax [1]: 11.2 fold
- CD40/NF-κB reporter (HEK-Blue CD40L), FAP-crosslinked, EC50 [1]: 0.25 nM
- CD40/NF-κB reporter (HEK-Blue CD40L), FAP-crosslinked, Fold change in Emax [1]: 11.7 fold
- CD40/NF-κB reporter (HEK-Blue CD40L), uncrosslinked, Fold change in Emax [1]: 4.06 fold
- EC50 [2]: 2.05 nM
- Maximum fluorescence value [2]: 68700
- 4-1BB/NF-κB luciferase reporter, CD40-crosslinked, EC50 [3]: 0.02 nM
- 4-1BB/NF-κB luciferase reporter, CD40-crosslinked, Fold change in Emax [3]: 5.04 fold
- 4-1BB/NF-κB luciferase reporter, FAP-crosslinked, EC50 [3]: 0.04 nM
- 4-1BB/NF-κB luciferase reporter, FAP-crosslinked, Fold change in Emax [3]: 14.9 fold
- 4-1BB/NF-κB luciferase reporter, uncrosslinked, Fold change in Emax [3]: 1.33 fold
- EC50 [4]: 1.03 nM
- Maximum fluorescence value [4]: 70600
- EC50 [5]: 0.25 nM
- Maximum fluorescence value [5]: 11300
- CD40/NF-κB reporter (HEK-Blue CD40L), 4-1BB-crosslinked, EC50 [6]: 0.499 nM
- CD40/NF-κB reporter (HEK-Blue CD40L), 4-1BB-crosslinked, Fold change in Emax [6]: 6.38 fold
- CD40/NF-κB reporter (HEK-Blue CD40L), FAP-crosslinked, EC50 [6]: 0.301 nM
- CD40/NF-κB reporter (HEK-Blue CD40L), FAP-crosslinked, Fold change in Emax [6]: 6.89 fold
- CD40/NF-κB reporter (HEK-Blue CD40L), uncrosslinked, Fold change in Emax [6]: 2.05 fold
- 4-1BB/NF-κB luciferase reporter, CD40-crosslinked, EC50 [7]: 0.09 nM
- 4-1BB/NF-κB luciferase reporter, CD40-crosslinked, Fold change in Emax [7]: 4.97 fold
- 4-1BB/NF-κB luciferase reporter, FAP-crosslinked, EC50 [7]: 0.266 nM
- 4-1BB/NF-κB luciferase reporter, FAP-crosslinked, Fold change in Emax [7]: 7.43 fold
- 4-1BB/NF-κB luciferase reporter, uncrosslinked, Fold change in Emax [7]: 1.06 fold
- EC50 [8]: 12.1 nM
- Maximum fluorescence value [8]: 64700
- EC50 [9]: 0.548 nM
- Maximum fluorescence value [9]: 10600
- EC50 [10]: 3.98 nM
- Maximum fluorescence value [10]: 69400

B2: C5-Fc (anti-4-1BB nanobody C5 linked to IgG1-Fc with C220A, S267E, L328F) (Fc fusion)
chain: QVQLVESGGGLVQPGGSLRLSCSASGFTFSSYAMSWVRQAPGKGLEWVSDINSGGESTFYEDSVKGRFTISRDNAKNTLYLQMNSLKPEDTAVYYCAKHPLTFTIATMNDYDYWGQGTQVTVSS[human IgG1 Fc with changes not given here]
notes: Tested as VHH-Fc
- EC50 [11]: 3.2 nM

Like-named read-outs stand apart in the source and are kept apart here.
